Source: PubChem BioAssay AID1159614 (National Center for Advancing Translational Sciences (NCATS), 2016)
Out of some 45,000 compounds screened, about 65 (0.1%) were called active. The call rests on the fitted dose curve; in most records, active means well fitted activation curve with a large enough effect; inconclusive means small, poorly fitted or top-dose-only effect; inactive means no such curve, though single readings can be large or run the other way. The list shows a part of the results.

What follows are compounds tested against Galactocerebrosidase (Homo sapiens) (UniProt P54803) (assay: A Novel Cell-Based Assay to Identify Small Molecules for B -Galactocerebrosidase). Settings: 145M-Twi-hGALC-G270D cells (Twitcher mouse brain line with human GALC G270D), HMU-beta-Gal fluorescence, 48 h; series mostly up to 57.5 µM; activation: at the top concentration.
Summary of the method: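 Fluorogenic HMU-b-Gal hydrolysis (0.1 mM final, pH 5.2 citrate-phosphate with 1 mg/mL sodium taurocholate; carbonate stop buffer) measures mutant GALC activity after compound treatment of live 145M-Twi Twitcher brain cells stably carrying human GALC-G270D, with wild-type GALC line alongside; activation sought.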
Further: 0% is about no effect; nearly all actives have a fitted effect of over 65% in size.

Chain of UniProt P54803 (P54803 whole entry, looked up): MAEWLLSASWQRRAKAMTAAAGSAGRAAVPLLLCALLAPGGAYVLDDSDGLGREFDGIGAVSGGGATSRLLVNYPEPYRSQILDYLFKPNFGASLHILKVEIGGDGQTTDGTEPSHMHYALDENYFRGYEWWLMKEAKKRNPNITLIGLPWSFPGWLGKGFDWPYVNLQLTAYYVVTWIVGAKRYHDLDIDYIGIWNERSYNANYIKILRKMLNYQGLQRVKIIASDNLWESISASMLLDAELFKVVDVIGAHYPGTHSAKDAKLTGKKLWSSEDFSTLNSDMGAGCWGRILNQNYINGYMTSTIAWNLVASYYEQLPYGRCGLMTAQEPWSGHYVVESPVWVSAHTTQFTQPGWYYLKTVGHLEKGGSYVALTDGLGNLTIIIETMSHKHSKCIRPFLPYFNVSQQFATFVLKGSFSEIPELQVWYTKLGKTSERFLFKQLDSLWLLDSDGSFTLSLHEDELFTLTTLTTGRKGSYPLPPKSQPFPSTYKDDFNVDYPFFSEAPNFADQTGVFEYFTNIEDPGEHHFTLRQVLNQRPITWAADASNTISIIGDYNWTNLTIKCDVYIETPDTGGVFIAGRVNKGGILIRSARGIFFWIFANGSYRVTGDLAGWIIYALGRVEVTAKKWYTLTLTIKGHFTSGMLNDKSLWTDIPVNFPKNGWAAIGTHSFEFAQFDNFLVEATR

activation, inactive:
COCCNC(=O)CSc1nc(-c2ccc(C)cc2)nc2c1c(=O)n(C)c(=O)n2C -15.6%
COc1ccccc1NC(=O)c1c(NC(=O)c2ccccc2Cl)sc2c1CCC2 -11.2%
Cc1cccc(OCC(=O)Nc2ccc3nc(Nc4cccc(Cl)c4)cc(C)c3c2)c1 2.53%
CCOc1ccccc1CNC(=O)CN1C(=O)CCc2cc(S(=O)(=O)N3CCCCC3)ccc21 -27.2%
COc1ccc(CN2C(=O)C(NC(=O)c3ccccc3OC)(C(F)(F)F)N=C2c2ccccc2)cc1 (stereo not given) -13.1%
CCc1ccc(S(=O)(=O)c2nnn(-c3cccc(C)c3)c2N)cc1 -5.71%
CCc1ccc(NC(=O)CCn2cnc3ccccc3c2=O)cc1 -8.35%
CCOc1ccc(CNC(=O)CCCn2c(=O)c3cccn3c3ccc(F)cc32)cc1 -5.96%
CC(=O)N1CCc2c(sc3c2c(=O)n(Cc2ccccc2)c(=O)n3CC(=O)Nc2ccc(C)c(F)c2)C1 -15.5%
Cn1c(=O)c(=O)n(C)c2cc(NC(=O)c3ccccc3Br)ccc21 -17.6%
O=C(Nc1ccccc1C(F)(F)F)N1CCN(c2ccc3nnc(-c4ccc(F)cc4)n3n2)CC1 1.3%
O=C(CCn1cnc2onc(-c3ccc(F)cc3)c2c1=O)N1CCN(c2cccc(Cl)c2)CC1 -10.9%
Cc1ccc(NC(=O)Cn2c(-c3nonc3N)nc3ccccc32)cc1Cl -7.2%
CCC(C(=O)NCCCN(CC)CC)n1ncn2c(cc3occc32)c1=O (stereo not given) -10.2%
CCOc1ccc(CNC(=O)C2Cc3cc(S(=O)(=O)N4CCCCCC4)ccc3N2C(C)=O)cc1 (stereo not given) -3.31%
O=C(Nc1nnc(S(=O)(=O)N2CCOCC2)s1)c1ccc(F)cc1 -24.1%
N#Cc1cccc(NC(=O)c2ccc3c(c2)N(Cc2cccc(Cl)c2)C(=O)c2ccccc2S3(=O)=O)c1 -8.76%
O=C(c1ccc(F)cc1F)N1CCC(c2noc(-c3ccc(S(=O)(=O)N4CCCC4)cc3)n2)CC1 -2.86%
CCOc1ccc(OCC)c(NC(=O)C2CCN(c3cnccn3)CC2)c1 -9.12%
Cn1c(=O)oc2cc(S(=O)(=O)Nc3ccc(O)cc3)ccc21 -13.8%
COc1ccc(C2NC(=O)N(C)C3=C2C(=O)N(c2ccc(C)cc2)C3)cc1 (stereo not given) -20.1%
Cc1ccccc1-c1noc(-c2ccccc2OCC(=O)Nc2ccccc2[N+](=O)[O-])n1 -15.8%
CCc1ccc(NC(=O)CN(Cc2ccccc2)S(=O)(=O)c2ccc3nc(C)sc3c2)cc1 -7.02%
COc1ccc(NC(=O)CSc2nc(-c3ccccc3)nc3c2Cc2c(CO)cnc(C)c2O3)cc1Cl -7.3%
Cc1ccc(N2CCN(C(=O)c3noc4c3COc3ccc(C)cc3-4)CC2)c(C)c1 4.75%
Cc1ccc(CN(C(=O)COc2ccc(Br)cc2)c2ccccn2)o1 -5.06%
COc1ccc(Cl)cc1N(C)C(=O)C(=O)Nc1ccc2nc3n(c(=O)c2c1)CCCCC3 -27.8%
Cc1ccc(C)c(N2CCN(C(=O)C(C)n3c(C)c4cnn(-c5ccccc5)c(=O)c4c3C)CC2)c1 (stereo not given) -18%
COc1ccccc1C1C=C(c2ccc(Cl)cc2)Nc2nc(-c3ccc(Cl)cc3)nn21 (stereo not given) -10%
Cc1ccc2oc(=O)n(CCNC(=O)Nc3ccc(C)c(F)c3)c2c1 -4.84%
Cc1ccccc1CSc1nc2cccnc2n1Cc1ccc(C(=O)NCCc2cccs2)cc1 -7.48%
O=C(CSCc1cnn(-c2ccccc2)c1-n1cccc1)Nc1ccc(F)cc1F -12.9%
Cc1ccc(C)c(Cn2nc(C)n3c(cc4cc(C)ccc43)c2=O)c1 -4.52%
COC(=O)c1ccc(OCC2c3cc(OC)c(OC)cc3CCN2C(=O)c2ccccc2F)cc1 (stereo not given) -20.7%
CC(Nc1ccc(-c2nc(-c3ccccn3)no2)cc1[N+](=O)[O-])c1ccccc1 (stereo not given) -10.3%
Cc1ccc(CNC(=O)c2c(-c3cccc(Br)c3)noc2C)o1 -6.83%
CCCCCn1c(=N)n(CC(O)COc2cccc(C)c2)c2ccccc21 (stereo not given) -15.8%
CC(C)c1nn2c(=O)cc(COC(=O)CNC(=O)c3ccccc3)nc2s1 -1.97%
COc1ccc(NC(=O)Cc2csc(COc3cccc(C)c3)n2)c(OC)c1 -2.36%
OCCc1ccccc1 -16.2%
CCc1ccc(NC(=O)C(=O)NCC(c2cccnc2)N2CCOCC2)cc1 (stereo not given) -22.6%
Cc1cccc(C(=O)Nc2cccc(OCc3cc(=O)n4c(C)csc4n3)c2)c1 -13.3%
O=C(c1ccc(F)cc1)C1CCN(CCn2c(=S)[nH]c3ccccc3c2=O)CC1 -13.1%
CCc1ccc(NC(=O)c2cc3c(=O)n(Cc4cccnc4)ccc3nc2C)cc1 -9.37%
O=C(O)c1ccccc1Nc1cccc(C(F)(F)F)c1 -7.48%
CCn1cc(C(=O)N(C)Cc2ccccc2)c(=O)c2cc(S(=O)(=O)N3CCCCCC3)ccc21 -1.88%
COc1ccc(OCC(=O)NCCS(=O)(=O)N2CCN(c3cccc(Cl)c3)CC2)cc1 -7.1%
COc1ccc(-c2noc(CCC(=O)NCc3ccc(OC)cc3OC)n2)cc1 -34.9%
CCC(=O)N1CCc2cc(S(=O)(=O)CCC(=O)NCc3ccccc3Cl)ccc21 -8.54%
CCCc1nn2c(=O)cc(COC(=O)c3ccccc3NC(=O)C3CCCCC3)nc2s1 -7.46%
CCC(=O)O[C@]1(C(=O)SCF)[C@H](C)C[C@H]2[C@@H]3C[C@H](F)C4=CC(=O)C=C[C@]4(C)[C@@]3(F)[C@@H](O)C[C@@]21C -16.9%
COC(=O)c1c(C)sc(-c2c(-c3ccc(F)cc3)[nH]c3[nH]c(=O)[nH]c(=O)c23)c1O -2.02%
Cc1ccc(NC(=O)C2CCN(S(=O)(=O)c3cccs3)CC2)cc1 -11.4%
COc1ccc(C(=O)NCC(c2cccnc2)N2CCN(c3ccccc3F)CC2)cc1OC (stereo not given) -14.2%
CC1=C(C(=O)OC2CCCCCC2)C(c2ccccc2Cl)CC(=O)N1 (stereo not given) -15.3%
COCCCNC(=O)N1CCN(c2nnc(C)c3c(C)n(-c4ccc(Cl)cc4)nc23)CC1 -14.8%
CCc1ccc(NC(=O)CN(c2ccc(C)cc2)S(=O)(=O)c2c(C)nn(C)c2C)cc1 -9.75%
Cc1ccc(-n2c(SCc3nc(-c4ccc(Cl)cc4)no3)nnc2-c2ccncc2)cc1 -4.57%
COc1ccc(CCNC(=O)CCc2c(C)nc3c(-c4ccc(F)cc4)c(C)nn3c2C)cc1OC -13.5%
COc1cccc(CNCCCSc2nnnn2C)c1 -13.9%
